Results from PubChem BioAssay AID1347073 (National Center for Advancing Translational Sciences (NCATS), 2019).
The whole screen tested about 45,000 compounds, of which about 200 (0.44%) were called active. Roughly 7% stayed inconclusive and do not appear here. Calls follow the shape of the dose curve; as a rule, active = well fitted activation curve with a large enough effect; inconclusive = small, poorly fitted or top-dose-only effect; inactive = no such curve, though single readings can be large or run the other way. Some of the results follow.

Assay: qHTS of TDP-43 Inhibitors: NCGC Sytravon Library Screen; also: 0% is about no effect; nearly all actives have a fitted effect of over 55% in size
Conditions: yeast TDP-43 toxicity rescue, BacTiter-Glo growth, 24 h; series mostly up to 46.1 µM; growth rescue (activation): at the top concentration
In short: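 TDP-43-expressing yeast, pregrown in raffinose, seeded at OD600 0.02 in galactose medium with compound for 24 hr at 30 deg C. Growth read by BacTiter-Glo luminescence, so rescue of toxicity appears as activation.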
In the case of `O=C(COc1ccc(F)c(Cl)c1)Nc1ccc(N2CCOCC2)cc1`, the “growth rescue (activation)” value is reported as inactive: 23.3%. With `O=C(CCc1ccccc1)NC1C2CC3CC(C2)CC1C3` (configuration not stated) the “growth rescue (activation)” value was inactive: 17.9%. In the case of `Cc1noc(C)c1CSCC(=O)OCc1nnc(-c2ccc([N+](=O)[O-])cc2)o1`, the “growth rescue (activation)” value is reported as inactive: 24.6%. For `COc1cc2c(cc1OC)CN(C(=O)COc1ccccc1[N+](=O)[O-])CC2`, the “growth rescue (activation)” value was inactive: 24.9%. In the case of `O=C(Nc1ccccc1)Nc1nnc(/C=C/c2ccccc2Cl)s1`, the “growth rescue (activation)” value is reported as inactive: 23.5%. For `CCOC(=O)C1(CC2CC2)CCN(C(=O)c2cc(C)nc3ccc(CC)cc23)CC1`, the “growth rescue (activation)” value was inactive: 6.95%. With `O=C1Nc2cc3c(cc2Sc2ccccc21)OCCO3` the “growth rescue (activation)” value was inactive: -8%. With `O=C(Nc1ccc(N2CCOCC2)cc1)c1cc(-n2cnnc2)ccc1Cl` the “growth rescue (activation)” value was inactive: 7%. For `COc1ccc(C(=O)N[C@H](C(=O)Nc2sccc2C(N)=O)C(C)C)cc1`, the “growth rescue (activation)” value was inactive: -15.4%. For `CCOc1ccc(NC(=O)C2Cc3ccccc3CN2S(=O)(=O)CC)cc1` (configuration not stated), the “growth rescue (activation)” value was inactive: 11.7%. In the case of `COc1ccc(C(C(N)=O)c2ncc(C(F)(F)F)cc2Cl)cc1OC` (configuration not stated), the “growth rescue (activation)” value is reported as inactive: 3.81%. With `CCC(=O)Nc1ccc(NC(=S)NC(=O)Cc2ccccc2)cc1` the “growth rescue (activation)” value was inactive: -5%. In the case of `O=C1CCC(C(=O)N2CCC(O)(c3ccccc3)CC2)CN1CCc1ccccc1` (configuration not stated), the “growth rescue (activation)” value is reported as inactive: 19.3%. For `O=C1C2CC=CCC2C(=O)N1c1ccc(N2CCN(c3ccccn3)CC2)c([N+](=O)[O-])c1` (configuration not stated), the “growth rescue (activation)” value was inactive: -12.2%. In the case of `Cc1ccc(N=C/C(C(=O)C(F)(F)F)=C(\O)c2ccco2)cc1Cl`, the “growth rescue (activation)” value is reported as inactive: -3.77%. For `CS(=O)(=O)Nc1cccc(S(=O)(=O)N2CCN(C(=O)c3ccccc3)CC2)c1`, the “growth rescue (activation)” value was inactive: -5.39%. In the case of `CCOC(=O)c1c(C)[nH]c(C(=O)CN2C(=O)NC(C)(C)C2=O)c1C`, the “growth rescue (activation)” value is reported as inactive: 30.4%. With `NC(=O)c1nsc(C(=O)N(Cc2ccco2)C(C(=O)NCC2CCCO2)c2ccc(F)cc2)c1N` (configuration not stated) the “growth rescue (activation)” value was inactive: -10.8%. With `O=C(N/N=C/c1ccc[nH]1)c1ccc(O)cc1` the “growth rescue (activation)” value was inactive: 3.95%. For `COc1cc(NC(=O)c2ccc(CNc3c(N4CCCC4)c(=O)c3=O)cc2)cc(OC)c1OC`, the “growth rescue (activation)” value was inactive: 28.4%. For `O=C(CN(C(=O)CCC(=O)Nc1ccccn1)c1ccc(F)cc1)NCc1ccco1`, the “growth rescue (activation)” value was inactive: 5.72%. For `COc1ccccc1CNC(=O)COc1ccc(S(=O)(=O)N2CCOCC2)cc1C`, the “growth rescue (activation)” value was inactive: -2.47%. With `CC1=NNC(=O)C1CC(=O)N/N=C(\C)c1cccs1` (configuration not stated) the “growth rescue (activation)” value was inactive: 3.74%. With `O=C(COC(=O)CNC(=O)c1ccccc1F)NCC(F)(F)F` the “growth rescue (activation)” value was inactive: -2.15%. In the case of `CCc1nc2ccc(C(=O)NCCc3ccccn3)cn2c1N(C)CCC(C)C`, the “growth rescue (activation)” value is reported as inactive: -9.78%. For `CCCCn1c(=O)c(CCC(=O)OCC(=O)Nc2ccc(F)c(Cl)c2)nc2ccccc21`, the “growth rescue (activation)” value was inactive: 5.02%. In the case of `CCCOc1ccc(N2C(=O)CC(N(Cc3ccco3)C(=O)CC)C2=O)cc1` (configuration not stated), the “growth rescue (activation)” value is reported as inactive: 3.96%. In the case of `Cc1ccc(NC(=O)CCN2C(=O)c3cccc4cccc(c34)C2=O)cc1`, the “growth rescue (activation)” value is reported as inactive: 5.8%. For `O=[N+]([O-])c1cc(/C=N/N2CCN(Cc3ccccc3)CC2)ccc1Cl`, the “growth rescue (activation)” value was inactive: -5.42%. For `Cc1ccc(/C=C/C(=O)N2CCN(S(=O)(=O)c3c(C)c(C)cc(C)c3C)CC2)o1`, the “growth rescue (activation)” value was inactive: -18.5%. With `COc1ccc(Cl)cc1-n1nnc(-c2nc(-c3ccc4c(c3)OCO4)no2)c1C` the “growth rescue (activation)” value was inactive: 13.7%. For `COc1ccc([N+](=O)[O-])cc1NC(=O)c1cncc(Br)c1`, the “growth rescue (activation)” value was inactive: 17.2%. For `COc1cc(C(C(=O)NCc2ccccc2)N(C(=O)c2snc(C(N)=O)c2N)C2CCCC2)cc(OC)c1OC` (configuration not stated), the “growth rescue (activation)” value was inactive: -5.67%. In the case of `Cc1ccccc1NN=Nc1nc2c([nH]1)c(=O)n(C)c(=O)n2C`, the “growth rescue (activation)” value is reported as inactive: -21.3%. With `O=C(O)c1nc(-c2ccccc2)n(-c2ccccc2)n1` the “growth rescue (activation)” value was inactive: 8.03%. In the case of `Cc1ccsc1/C=N\NC(=O)c1n[nH]c2c1CCC2`, the “growth rescue (activation)” value is reported as inactive: -19.5%. With `CC1Cc2ccccc2N1C(=O)COC(=O)Cn1nnc(-c2ccccc2)n1` (configuration not stated) the “growth rescue (activation)” value was inactive: 31%. For `Cc1c(CC(=O)O)c(=O)oc2cc(OCc3ccc(F)cc3F)ccc12`, the “growth rescue (activation)” value was inactive: 11.1%. For `COc1ccc(C/C(C)=N/NC(=O)c2ccc(C)cc2C)cc1`, the “growth rescue (activation)” value was inactive: 10.3%. In the case of `CCOC(=O)N1CCN(C(=O)C2CCC(=O)N(CCCc3ccccc3)C2)CC1` (configuration not stated), the “growth rescue (activation)” value is reported as inactive: 17.6%. With `COc1cc(/C=N/NC(=O)CNC(=O)/C=C/c2ccco2)cc(OC)c1OC` the “growth rescue (activation)” value was inactive: -13.1%. With `O=C(CN1C(=O)/C(=C/c2ccccc2)SC1=S)Nc1ncc(Cc2ccccc2)s1` the “growth rescue (activation)” value was inactive: 29.1%. With `Cc1ccc(C(=O)Nc2cccnc2)cc1S(=O)(=O)N1CCCCCC1` the “growth rescue (activation)” value was inactive: 12.6%. In the case of `CCOc1ccc(-n2c(SCC(=O)Nc3cc(OC)c([N+](=O)[O-])cc3C)nc3ccccc32)cc1`, the “growth rescue (activation)” value is reported as inactive: 5.73%. For `O=C(CCc1ccc(S(=O)(=O)N2CCOCC2)cc1)NN=C1CCCCCCC1`, the “growth rescue (activation)” value was inactive: 9.99%. With `C=CCOc1ccc(/C=N/NC(C)=O)cc1OCC` the “growth rescue (activation)” value was inactive: 25.3%. With `COc1cccc(OCCCn2cc(/C=C3/C(=N)N4C=C(C)SC4=NC3=O)c3ccccc32)c1` the “growth rescue (activation)” value was inactive: 8.1%. In the case of `CCN(CC)CCNC(=O)/C(=N\O)c1ccccn1`, the “growth rescue (activation)” value is reported as inactive: -4.91%. With `CCNC(=O)NC(=O)C(C)OC(=O)c1cccnc1SC` (configuration not stated) the “growth rescue (activation)” value was inactive: 11%. With `O=C(Nc1ccc(NC(=O)c2ccc(Cl)cc2Cl)cc1)c1cccs1` the “growth rescue (activation)” value was inactive: 9.32%. With `CCCN1C(=O)C(Cc2nc3ccccc3c(=O)n2-c2ccccc2)c2ccccc21` (configuration not stated) the “growth rescue (activation)” value was inactive: 9.99%. In the case of `CC(=O)Nc1ccc(S(=O)(=O)Nc2ccc3c(c2)CCC3)cc1`, the “growth rescue (activation)” value is reported as inactive: 0.269%. With `Nc1c(Cl)ncnc1NCc1cccnc1` the “growth rescue (activation)” value was inactive: -9.22%. For `O=C(N/C(=C/c1ccc([N+](=O)[O-])cc1)C(=O)N1CCCC1)c1ccccc1`, the “growth rescue (activation)” value was inactive: 5.97%. With `Cc1c(C(=O)N2CCCC2(C)C(=O)NCC(C)C)oc2ccccc12` (configuration not stated) the “growth rescue (activation)” value was inactive: 11.2%. For `COc1cccc(OCC(Cn2c(C)nc3ccccc32)OC(C)=O)c1` (configuration not stated), the “growth rescue (activation)” value was inactive: -5.33%. With `O=C(Nc1cccc(C(F)(F)F)c1)c1ccc2sc([C@@H]3O[C@H](CO)[C@H](O)[C@H](O)[C@H]3O)nc2c1` the “growth rescue (activation)” value was inactive: 5.51%. In the case of `O=C(Cc1ccc([N+](=O)[O-])cc1)Nc1ccc2c(c1)OCO2`, the “growth rescue (activation)” value is reported as inactive: 13.7%. With `Cc1cc(C)c2cccc(N)c2n1` the “growth rescue (activation)” value was inactive: 1.64%. With `C=C(c1ccccc1)c1ccc(N(C)C)cc1` the “growth rescue (activation)” value was inactive: -6.68%. For `COc1ccccc1N1CCN(C2CC(=O)N(C)C2=O)CC1` (configuration not stated), the “growth rescue (activation)” value was inactive: -7.26%. In the case of `O=c1[nH]c(C2CCCN(S(=O)(=O)c3ccccc3F)C2)nc2c1nnn2Cc1ccccc1Cl` (configuration not stated), the “growth rescue (activation)” value is reported as inactive: 3.43%. In the case of `CCC1(C)Cc2[nH]c(=O)c(C#N)cc2CO1` (configuration not stated), the “growth rescue (activation)” value is reported as inactive: -13.5%. In the case of `NS(=O)(=O)c1cccc(-n2cnnn2)c1`, the “growth rescue (activation)” value is reported as inactive: 17.1%. For `N#C/C(=C\c1cccs1)c1nc2ccccc2[nH]1`, the “growth rescue (activation)” value was inactive: -36.7%. With `Cc1onc(-c2ccccc2)c1C(=O)Nc1nnc(C(C)(C)C)s1` the “growth rescue (activation)” value was inactive: 17.7%. In the case of `CN1CCCC1(C)C(=O)Nc1ccc(-n2cccc2)cc1` (configuration not stated), the “growth rescue (activation)” value is reported as inactive: 5.42%.
